# Test results reported in paper PMC4336329 (PLoS ONE, 2015).
# Screen size: about 310,000 compounds; about 14,000 (4.5%) showed an effect of 50% or more. Effects have a minus sign here. Some of the results follow.
# Target: human ether-à-go-go-related gene (hERG) potassium channel (human, UniProt Q12809)
# Assay: primary screen, population patch clamp on CHO cells stably expressing hERG
# 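Note: peak tail current of the secondary pulse compared with the same well before compound.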
# human ether-à-go-go-related gene (hERG) potassium channel, sequence (Q12809 whole entry, looked up): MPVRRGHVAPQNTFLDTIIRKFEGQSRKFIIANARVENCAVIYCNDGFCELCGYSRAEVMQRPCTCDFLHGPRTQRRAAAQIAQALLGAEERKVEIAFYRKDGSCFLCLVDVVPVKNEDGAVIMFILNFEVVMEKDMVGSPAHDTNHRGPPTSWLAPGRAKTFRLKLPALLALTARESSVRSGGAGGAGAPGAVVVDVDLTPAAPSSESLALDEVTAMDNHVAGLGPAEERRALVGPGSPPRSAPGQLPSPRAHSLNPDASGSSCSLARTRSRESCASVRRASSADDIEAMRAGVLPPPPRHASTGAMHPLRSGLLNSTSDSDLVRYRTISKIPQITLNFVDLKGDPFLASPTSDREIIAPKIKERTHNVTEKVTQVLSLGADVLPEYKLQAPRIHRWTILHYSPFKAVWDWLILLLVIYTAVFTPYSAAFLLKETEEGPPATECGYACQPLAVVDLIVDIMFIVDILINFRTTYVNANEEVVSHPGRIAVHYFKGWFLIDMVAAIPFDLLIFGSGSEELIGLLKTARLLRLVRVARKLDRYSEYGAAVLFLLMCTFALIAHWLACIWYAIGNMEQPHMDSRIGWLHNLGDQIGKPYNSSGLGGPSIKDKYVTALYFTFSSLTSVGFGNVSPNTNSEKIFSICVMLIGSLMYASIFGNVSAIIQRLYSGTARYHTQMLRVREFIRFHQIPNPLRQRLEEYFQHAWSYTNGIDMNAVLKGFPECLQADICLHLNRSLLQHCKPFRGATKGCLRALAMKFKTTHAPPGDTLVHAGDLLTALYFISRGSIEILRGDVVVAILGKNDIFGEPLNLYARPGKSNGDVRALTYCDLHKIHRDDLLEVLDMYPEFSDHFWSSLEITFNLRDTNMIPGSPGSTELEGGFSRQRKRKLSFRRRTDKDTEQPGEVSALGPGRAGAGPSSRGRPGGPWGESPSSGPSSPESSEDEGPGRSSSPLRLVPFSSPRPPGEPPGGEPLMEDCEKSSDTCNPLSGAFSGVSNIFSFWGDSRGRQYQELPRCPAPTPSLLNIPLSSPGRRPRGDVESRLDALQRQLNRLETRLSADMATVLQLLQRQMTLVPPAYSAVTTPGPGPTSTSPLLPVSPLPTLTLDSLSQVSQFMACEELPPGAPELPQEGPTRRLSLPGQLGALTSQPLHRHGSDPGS
row,Structure (SMILES),"hERG current change (%, negative = inhibition) at 10uM"
1,CN(Cc1ccccc1F)c1nc(-c2cccnc2)nc2ccccc12,3.92%
2,COc1cc(NC(=O)c2cnn3c(C(F)F)cc(C4CC4)nc23)c(OC)cc1Cl,-1.25%
3,CCOc1cccc(-c2c(C(=O)N/N=C(\C)c3ccccn3)nnn2-c2nonc2N)c1,-3.45%
4,COC(=O)c1ccc2c(=O)n(CCCCCC(=O)NCCNC(C)=O)c(=O)[nH]c2c1,10.2%
5,CCOP(=O)(OCC)C1(C(=O)[O-])CCCC1.[NH4+],3.87%
6,COC(=O)CCNC(=O)c1ccc2nc(Cc3ccc(OC)c(OC)c3)oc2c1,16%
7,Cc1ccc(C(C(=O)NCc2ccco2)N(C(=O)CNC(=O)c2cccs2)c2ccc(C)cc2C)cc1 (stereo not drawn),-10.3%
8,Cc1ccc(C(=O)NC2CCN(CC(=O)NCc3cccs3)CC2)cc1,-29.7%
9,CC(=O)Nc1cccc(N/C=C(\C=O)c2nc3ccccc3o2)c1,-20.6%
10,CN1c2ccccc2-c2nc3ccccc3n2C1c1ccco1 (stereo not drawn),-15.3%
11,O=C1N(c2ccccc2C(F)(F)F)O[C@@]1(c1ccccc1)C1CCCC1,14.5%
12,Cc1[nH]nc(SCC(=O)NC(C)c2ccccc2)c1[N+](=O)[O-] (stereo not drawn),0.565%
13,O=C1CC(N2CCSCC2)C(=O)N1c1ccc(Br)cc1 (stereo not drawn),-10.8%
14,Br.O=C(Cn1c(NCCO)nc2ccccc21)c1ccco1,0.663%
15,CCCCn1c(SCC(=O)Nc2nnc(CC)s2)nc2ccccc2c1=O,1.88%
16,CCN(CC)CCN(CC)Cc1ccccc1Br,-19.8%
17,FC(F)(F)c1cnc(-c2cnc(-c3ccncc3)nc2)c(Cl)c1,-20.9%
18,COc1ccc(-c2csc(=Nc3c(C)n(C)n(-c4ccccc4)c3=O)n2C(C)(C)C)cc1,-21.4%
19,NC(=O)c1cc(S(=O)(=O)NCc2ccc(F)cc2)cs1,3.37%
20,COc1ccccc1Nc1nc(-c2sc(NC(=O)CC(C)C)nc2C)cs1,5.43%
21,O=C(CCN1C(=O)C2C3C=CC(C3)C2C1=O)N1CC(=O)N(CCc2ccccc2)C(=O)C1 (stereo not drawn),-29%
22,COc1cc(C(=O)N/N=C/c2ccc(OC(=O)c3ccccc3Cl)cc2)ccc1O,-10.5%
23,CCC(=C(c1ccc(OC)cc1)c1ccc(OC)cc1)c1cn(CC(O)CN2CCN(C)CC2)c2ccccc12 (stereo not drawn),-6.39%

row,Structure (SMILES),"hERG current change (%, negative = inhibition) at 10uM"
1,O=C(NCc1cn2ccccc2n1)C1CCC(=O)N(Cc2ccccc2F)C1 (stereo not drawn),2.43%
2,O=C(CSc1nnnn1C1CC1)N1CCN(c2ccc(O)cc2)CC1,-3.87%
3,O=C(NC1CC1)C1=C[C@@H](C2CCCCC2)C[C@@H](OCc2ccc(CO)cc2)O1,-15.9%
4,Cc1cccc(NC(=S)N2CCN(S(=O)(=O)c3ccccc3)CC2)c1,5.35%
5,COc1ccc(OC)c(CCNC(=O)CC2(CC3=NS(=O)(=O)c4ccccc4N3)CCCC2)c1,-11.2%
6,O=Cc1c(C(=O)O)n(Cc2ccc(F)cc2Cl)c2ccccc12,18%
7,COc1cc(C2CC(c3c(C)cc(C)[nH]c3=O)=NN2c2ccccc2F)cc(OC)c1OC (stereo not drawn),-3.68%
8,Fc1ccc(-n2[nH]nnc2=S)cc1N1CCCC1,13.4%
9,CC1CC(C)CN(C(=O)C(Cc2ccccc2)NC(=O)c2ccccc2)C1 (stereo not drawn),-10%
10,COC(=O)C1=CN(c2cccc(C)c2)C=C(C(=O)OC)C1c1cc(OC)c(O)c([N+](=O)[O-])c1,-29.1%
11,Cc1cccc(NC(=S)N2CCOCC2)c1C,-3.76%
12,CN(C)c1ccc(/C=N/c2cc(-c3ccccc3)nn2-c2ccccc2)cc1,5.79%
13,CC(C)C(NCc1c(Cl)cccc1Cl)C(=O)O (stereo not drawn),2.54%
14,NS(=O)(=O)c1ccc(CCNC(=O)CCC2COc3ccccc3O2)cc1 (stereo not drawn),-15.5%
15,COc1ccc(CCC(C)NC(=O)Cc2ccc(OC)c(OC)c2)c(OC)c1 (stereo not drawn),11.6%
16,Cn1cccc1CC(=O)NNC(=S)Nc1ccc(Cl)cc1Cl,6.56%
17,c1ccc2c(c1)CCCC2NC1=NCCC1 (stereo not drawn),-2.53%
18,Cc1cccc(NC(=O)CNC(=O)c2cccs2)n1,19.2%
19,CCN1CCN(C(=O)COc2ccc3c(c2)C(=O)CC2(CCN(C(C)=O)CC2)O3)CC1,20.5%
20,COc1ccccc1NC(=O)C(C)Sc1nnc2ccccn12 (stereo not drawn),-3.27%
21,Cc1ccnc(N2C(=O)c3cccc4c([N+](=O)[O-])ccc(c34)C2=O)c1,4.06%
22,Cc1cc(OCC(=O)OCC(=O)NC2CCCCCC2)ccc1Cl,12.3%
